Recombinant human monoclonal antibodies (heavy:light variable regions). ELISA EC50 on the named antigen, from 10 µg/ml down; lower = stronger. No active / inactive call.
Molecular target: SARS-CoV-2 Wuhan-Hu-1 spike receptor-binding domain
Experiment: ELISA binding EC50; higher = weaker binding; ELISA of recombinant human antibody on coated antigen, from 10 µg/ml in fourfold dilutions; four-parameter fit.

B1: C1026 (protein)
chain 1: QVQLVESGGGVVQPGKSLRLSCAASGFIFSSYSMHWVRQAPGKGLEWVAVVSNDGSGKFYADSVRGRFTIFRDNSKNTLYLQVSSLRAEDTAVYYCARDALTSISVLFDCWGQGTLVTVSS
chain 2: DIQMTQSPSSLSASLGDRVTITCRASQSISNYLNWYQQKPGKAPKLLIYGASSLQSGVPSRFSGSGSGTDFTLTISNLQPEDFATYFCQQSYSTPSVTFGGGTKVEIK
  ELISA binding EC50: 2.5 ng/mL

B2: C936 (protein)
chain 1: EVQLVESGGGLIQPGGSLRLSCAASGFTVSSNYMSWVRQAPGKGLEWVSVIYSGGSTFYADSVKGRFTISRDNSKNTLYLQMNSLRAEDTAVYYCARDLGTGLFDYWGQGTLVTVSS
chain 2: DIQLTQSPSFLSASVGDRVTITCRASQGISSYLAWYQQKPGKAPKLLIYAASTLQSGVPSRFSGSGSGTEFTLTISSLQPEDFATYYCQQLDSYPPGTFGPGTKVDIK
  ELISA binding EC50: 1.56 ng/mL

B3: C937 (protein)
chain 1: EVQLVESGGGLIQPGGSLRLSCAASELTVSSNYMSWVRQAPGKGLEWVSVIYPGGSTFYADSVKGRFTISRDNSKNTLYLQMNSLRAEDTAVYYCARDLGTGLFDYWGQGTLVTVSS
chain 2: DIQLTQSPSFLSASVGDRVTITCRASQGISSYLAWYQQKPGKAPKLLIYAASTLQSGVPSRFSGSGSGTEFTLTISSLQPEDFATYFCQLLNSNPPGTFGPGTKVDIK
  ELISA binding EC50: 0.97 ng/mL

B4: C934 (protein)
chain 1: QVQLVQSGAEVKKPGASVKVSCKASGYTFTDYYIHWVRQAPGQGLEWMGWINPNSGGTNYAQKFQGRVTMTRDTSISTAYMDLSRLRSDDTAVYYCARDVIITMGRGVVFRMDVWGQGTTVTVSS
chain 2: not shown
  ELISA binding EC50: 0.95 ng/mL

B5: C940 (protein)
chain 1: QVQLQESGSGLVKPSQTLSLTCAVSGGSASSGGYSWSWIRQPPGKGLEWIGYIYHSGSTYYNPSLKSRVTISLDRTKKQFSLKLSSVTAADTAVYYCARFCLSGSHYLFAFDIWGPGTMVTVSS
chain 2: QSALTQPASVSGSPGQSITISCTATSSDVGGYNFVSWYQQYPGKVPKLLIYDVGNRPSGVSNRFSGSKSGNTASLTISGLQAEDEADYYCSSYTNSSTFFGGGTKLTVL
  ELISA binding EC50: 1.79 ng/mL

B6: C941 (protein)
chain 1: QVQLVQSGAEVKKPGSSVKVSCKASGGTSRSYPISWVRQAPGQGLEWMGRIIPIVGTANYAQRFQGRVTITADESTGTAYMELSSLRSEDTAVYYCARNRGYSDYGSVYYFDYWGQGTLVTVSS
chain 2: QSVLTQPPSVSGAPGQRVTISCTGSSSNIGAGYDVHWYQQLPGAAPKLLIYRNINRPSGVPDRFSGSKSGTSASLAITGLQADDEADYYCQSYDSSLSGSVFGGGTKLTV
  ELISA binding EC50: 0.88 ng/mL

B7: C1028 (protein)
chain 1: QVQLVESGGGVVQPGRSLRLSCADSGFTFSSSGMHWVRQAPGKGLEWVGVISYDGGNKYYADSVKGRFTISRDNSKNTLYLQMNSLRAEDTAVYYCAKDTPGGDDIMTGWGLYGMDVWGQGTTVTVSS
chain 2: DIQMTQSPSSLSASVEDRVTITCRASQSISSYLNWYQQKPGKAPKLLIYAAISLQSGVPSRFSGSGSGTEFTLTISSLQPEDFATYYCQQSYTTPWAFGQGTKVEIK
  ELISA binding EC50: 3.58 ng/mL

B8: C850 (protein)
chain 1: QVQLQESGPGLVKPSETLSLICSVSGVSVSSRNFFWSWIRQPPGKGLEWIGYMSYGGNTNYNPSLKSRVTISIDTSKNQFSLKLSSVTAADTAVYYCARETYYYDRSGYYSSDGFDYWGQGILVTVSS
chain 2: EIVLTQSPGTLSLSPGERATLSCRASQSITSSSLAWYQQKRGQPPRLLIYGASSRATGIPDRFSGSGSGTDLTLTISRLEPEDFAVYYCQQYGNSPYTFGQGTKLEIK
  ELISA binding EC50: 3.7 ng/mL

B9: C1027 (protein)
chain 1: EVQLVESGGGLVQPGGSLRLSCAASGFIVTTNYMSWVRQAPGKGLEWVSLIYPGGSTFYADSVEGRFTISRDNSKNTLYLQVNSLRVEDTAVYYCARDTFGRGDDHWGQGTLVTVSS
chain 2: DIQMTQSPSSLSASVGDRVTITCQASQDINIYLNWYQQRPGKAPKLLIYDASNLQTGVPSRFSGSGSGTDFTITISSLQPEDIATYYCQQYDNLPRSFGQGTKLEI
  ELISA binding EC50: 2.42 ng/mL

B10: C945 (protein)
chain 1: QVQLVQSGAEVKKPGASVRISCKASGYTFTNYYMHWVRQAPGQGLEWMGIINPSGGSTTYAPKFQARVTMTRDTSTSTVYMELSSLRSDDTAVYYCARDYVLVPARSGMDVWGQGTTVTVS
chain 2: EIVLTQSPATLSLSPGERATLSCRASQSVSSYLAWYQQKPGQAPRLLIYDASNRATGIPARFSGSGSGTDFTLTISSLEPEDFAIYYCQQRSNWPYTFGQGTKLEIK
  ELISA binding EC50: 3.13 ng/mL

B11: C946 (protein)
chain 1: QVQLVQSGAEVKKPGASVKVSCKASGYTFTNYYIHWVRQAPGQGLEWMGIINPDGDSTSYVQKFQGRVTMTRDTSTSTVYMELSSLRSEDTAVYYCARDLVFVPATSAMDVWGKGTTVTVSS
chain 2: EIVLTQSPATLSLSPGERATLSCRASQSVSSYLAWYQQKPGQAPRLLIYDASNRATGIPARFSGSGSGTDFTLTISSLEPEDFAVYYCQQRSNWLFTFGPGTKVDIK
  ELISA binding EC50: 3.82 ng/mL

B12: C949 (protein)
chain 1: QVQLQESGPGLVKPLQTLSLTCTVSGGSISNGDYYWSWIRQSPGKGLEWIGNIFYSGATYFNPSLKSRVTLSVDTSKNQFSLKLSSVTAADTAVYYCARVVRVLPAASVDCWGQGTLVTVSS
chain 2: QSALTQPRSVSGSPGQSVPISCTGTSSDVGGYDYVSWYQQHPGKAPKLIIYDVSERPSGVPDRFSGSKSGNTASLTISGLQAEDEATYYCCSYAGTSVMFGGGTKLTVL
  ELISA binding EC50: 2.33 ng/mL

B13: C939 (protein)
chain 1: QVQLVESGGGVVQPGRSLRLSCAASGFTFSSYAMHWVRQAPGKGLESVALISHDGSNKYHADSVKGRLTISRDTSKNTLYLQMDSLRPEDTAVYYCASGLLWFETAGGSGAPDYGMAVWGQGTTVTVSS
chain 2: DIQMTQSPSSLSASVGDRVTITCRASQSISTYLNWYQQKPGRAPKFLIYAASSLQSGVPSRFSGSGSGTDFTLIISGLQPEDFATYFCQQSYNTPLTFGGGTKVEIK
  ELISA binding EC50: 3.62 ng/mL

B14: C938 (protein)
chain 1: QVQLVESGGGVVQPGRSLRLSCAASGFTFRSHAMHWVRQAPGKGLEWVAIISSDGFNKYYADSVKGRFTISRDNSKNTLYVHMNSLRVEDTAIYYCASGLLWFETREISGAPDYGMAVWGQGATVTVSS
chain 2: DIQMTQSPSSLSASVGDRVTITCRASQNISNFLNWYQQKPGKAPKLLIYAASSLQSGVPSRYSGSGSGTDFTLTISSLQAEDFATYYCQQSYSTPLTFGGGTKVEIK
  ELISA binding EC50: 2.63 ng/mL

B15: C1025 (protein)
chain 1: EVQLVESGGGLVQPGRSLRLSCAASGFTFDDYAMHWVRQVPGKGLEWVSGVSWNGDSVGYADSMEGRFTISRDNAKNSLYLQMNSLRTEDTALYYCAKGVDYSSSSNFDFWGQGTLVTVSS
chain 2: DIQMTQSPSSVSASVGDRVTITCRASQGISSWLAWYQQKPGKAPKLLISLASSLQSGVPSRFSGSGSETDFTLIISSLQPEDFATYYCQQSSSFPLTFGGGTKVEIK
  ELISA binding EC50: 2.51 ng/mL

B16: C851 (protein)
chain 1: QLQLQESGPGLVKTSETLSLTCTVSGGSISSGNSYWGWIRQPPGKGLEWIGDIYYSGSTFYNPSLKSRLTISVDTSKNQFSLKLTSVTAADTAVYYCARRGGRTPVRFNYGGDVWGQGTTVTVSS
chain 2: DIQMTQSPSSLSASVGDRVTITCQASQDISRYLNWFQHKPGKAPKLLIYDASNLEAGVPSRFTGSGSGTEFTFTISSLQPEDFAIYFCQQYDSLPLTFGGGTKVEI
  ELISA binding EC50: 2.83 ng/mL

B17: C948 (protein)
chain 1: EVQLVESGGGLVQPGGSLRLSCAASGFTFSRYDMHWVRQATGKGLEWVSIIGTAGDTYYPGSVKGRFTISRDNAKNSLFLQMNSLRAGDTAVYYCARANYDSSGYHNWFDPWGQGTLVTVSS
chain 2: DIQMTQSPSSLSASIGDRVTITCRASQNINSYLNWYQQKPGKAPKLLIYAASSLQSGVPSRFSGSGSGTDFTLTINSLQPEDFATYYCQQSYSMPSWTFGQGTKVEI
  ELISA binding EC50: 3.26 ng/mL

B18: C951 (protein)
chain 1: QVQLQESGPRLVKPSGTLSLTCAVSGGSISTTNWWSWVRQPPGKGLEWIGEIHHSGNTNYNPSLKSRVTISVDRSKNQFSLKLSSVTAADTAVYFCARDGGRPGDPFDIWGQGTMVTVSS
chain 2: QSALTQPASVSGSPGQSITISCTGTSSDVGGYNYVSWYQQHPGKAPNLMIYDVSDRPSGVSNRFSGSKSGNTASLTISGLQAEDEADYYCNSFTSNSTRVFGTGTKVTV
  ELISA binding EC50: 0.81 ng/mL

B19: C935 (protein)
chain 1: QVQLVESGGGVVQPGRSLRLSCAATGFTFSSYGMHWVRQAPGKGLEWVALIWYDGSNQYYVDSVKGRFTISRDNSKKTLYLQMNSLRVEDTAVYYCARDFSNSDMVTLSDAFDIWGQGTMVTVSS
chain 2: DIQLTQSPSFLSASVGDRVTIACRASQGISSYSSYLAWYQQKPGKAPKLLIYAASTLQSGVPSRFSGSGSGTEFTLTISSLQPEDFATYYCQQLNSYPLFTFGPGTKVDIK
  ELISA binding EC50: 2.86 ng/mL

B20: C947 (protein)
chain 1: QVQLQESGPGLVRPSGTLSLTCAVTGGSISSSDCWSWVRQPPGKGLEWIGEICHGRTSNYNPSLKSPVSISVDKSKNQFSLILSSVTAADKAVYYCARSSRFLPPLPDAFDLWGQGTMVTVSS
chain 2: QSVLTQPPSVSGAPGQRVTISCTGSSSNIGAGYDVHWYKQLPGTAPKLLIYGNTNRPSGVPGRFSGSKSGTSASLAITGLQAEDEADYFCQSYDTRLSVVFGGGTKLT
  ELISA binding EC50: 2.08 ng/mL
